Data published in PubChem BioAssay AID463173 (ICCB-Longwood Screening Facility, Harvard Medical School, 2010).
About 4,300 (8.3%) of roughly 52,000 compounds were called active. Cut-off read from the data, not from the text of the source: active = survival mostly below about 52% (no sharp cut-off); inactive = mostly above about 56%. Some of the results follow.

Each compound was assayed on DeltatarO mutant (assay: S. aureus survival, RN4220 and DeltatarO strains – OD600, teichoic acid synthesis inhibitors, primary screen (AID 463173)). Conditions: S. aureus RN4220 wild type/DeltatarO growth, OD600, 18 h, stronger effect = lower value, screened at 18.75 µg/mL (by protocol).

Row | SMILES | survival
1 | COc1ccccc1CN1CCN(C2CCN(C(=O)NC(C)C)CC2)C(=O)C1=O | inactive: 94%
2 | CC1CCN(S(=O)(=O)c2ccc3c(c2)N(CC(=O)N2CCN(c4ccccc4)CC2)C(=O)CO3)CC1 | inactive: 81%
3 | COc1ccccc1C(=O)Nc1nc2nc(C)c(Cc3ccccc3)c(=O)n2[nH]1 | inactive: 111%
4 | CCSc1nc(Cl)c2ccccc2n1 | inactive: 69%
5 | CC(=O)c1ccc(NC(=O)Cn2ncc3c(C)n(Cc4ccc(F)cc4)c(C)c3c2=O)cc1 | active: 60%
6 | CCN(CC)N=Nc1ccc(C(=O)O)cc1 | inactive: 77%
7 | COc1cccc(Cn2c(CNS(=O)(=O)c3ccc4c(c3)CCCC4)nc3cccnc32)c1 | inactive: 87%
8 | CCc1ccc2c(c1)-c1ccccc1S(=O)(=O)N2CC(=O)N1CCC(C)CC1 | inactive: 78%
9 | CC(C)Cc1nnc(NC(=O)c2ccccc2)s1 | inactive: 76%
10 | Cc1cc(O)c(-c2ccnc3cc(-c4ccccc4)nn23)cc1Cl | inactive: 114%
11 | COc1cc2c(C(=O)N(C)c3cc(Cl)ccc3OC)cn(CC(C)C)c(=O)c2cc1OC | active: 48%
12 | CCN(C(=O)Cn1c(=O)n(CC2CCC(C(=O)NC)CC2)c(=O)c2sccc21)c1ccccc1 (stereo not given) | inactive: 81%
13 | Cc1nn(CCCC(=O)Nc2cccc(F)c2)c(=O)c2c1sc1ccccc12 | inactive: 54%
14 | S=C(Nc1ccccc1)NC1CC2CCCC(C1)N2C1CC1 (stereo not given) | inactive: 77%
15 | COc1ccc(NC(=O)CN2C(=O)CCc3cc(S(=O)(=O)N4CCOCC4)ccc32)cc1Cl | inactive: 86%
16 | CC(=O)N(C)c1ccc(N=Nc2c(-c3ccccc3)[nH][nH]c2=O)cc1 | inactive: 76%
17 | COc1ccc(Cl)cc1NC(=O)N1CC(=O)Nc2sc3c(c2C1c1ccccc1)CCCC3 (stereo not given) | inactive: 76%
18 | COc1ccccc1NC(=O)CSC1=Nc2ccccc2N=C(c2ccc(F)cc2)C1 | inactive: 89%
19 | Cc1cccc(-n2c3nc(=O)[nH]c(=O)c-3cc3c(C)nn(-c4ccccc4)c32)c1C | inactive: 83%
20 | CC(C)NC(=O)/C=C/c1ccc2c(c1)OCO2 | inactive: 95%
21 | O=C(Nc1ccccc1)c1cn(-c2ccccc2)nc1-c1ccccc1 | inactive: 85%
22 | Cc1cccc(C)c1NC(=O)CSCc1cnn(-c2ccccc2)c1-n1cccc1 | inactive: 54%
23 | COc1ccccc1Cn1c(CNS(=O)(=O)c2cccc([N+](=O)[O-])c2)nc2cccnc21 | inactive: 81%

Row | SMILES | survival
24 | CCC(Sc1nc2ccccc2c2nc(CCc3c(C)n[nH]c3C)nn12)C(=O)Nc1ccccc1F (stereo not given) | inactive: 86%
25 | COc1ccc(C)cc1NC(=O)CCn1nc(C)cc1C | inactive: 112%
26 | COc1cc(CNc2ccc3[nH]c(=O)[nH]c3c2)cc(Cl)c1OCc1ccccc1F | inactive: 78%
27 | Cc1ccc(-c2nonc2NC(=O)c2ccco2)cc1C | inactive: 90%
28 | Cc1oc(C)c2c(=O)cc(-c3ccc4c(c3)OCO4)cc(OC(=O)c3ccc(Cl)cc3)c12 | inactive: 103%
29 | Cc1ccc(-c2nn(CC(=O)Nc3cccc(C(F)(F)F)c3)c(=O)c3ccccc23)cc1 | active: 31%
30 | Cc1ccc(CNC(=O)c2ccc3c(c2)N(Cc2cccc(C)c2)C(=O)CS3)cc1 | active: 46%
31 | O=C(O)C1C2C=CC(C2)C1C(=O)NCCCN1CCOCC1 (stereo not given) | inactive: 117%
32 | CC1CCN(CC(C)OC(=O)c2ccc3c(c2)OCCO3)CC1 (stereo not given) | inactive: 99%
33 | O=C(CN1CCCC1)Nc1nc(-c2ccc3c(c2)CCN3C(=O)C2CC2)cs1 | inactive: 104%
34 | COc1ccc(CNC(=O)c2cc3cccc(OC)c3oc2=O)cc1 | inactive: 65%
35 | CCN(CC)C(=O)C1=C(C)Nc2nc3ccccc3n2C1c1cccc(Cl)c1 (stereo not given) | inactive: 65%
36 | COC(=O)c1ccc(NC(=O)CSc2n[nH]c(CC(C)C)n2)cc1 | active: 36%
37 | Cc1cccc(OC(=O)c2cc(-c3ccc(Cl)cc3)on2)c1C | inactive: 106%
38 | N#Cc1c(N)nc(SCC(=O)c2cc3ccccc3oc2=O)c(C#N)c1-c1ccc(O)cc1 | inactive: 90%
39 | COc1ccc(CNC(=O)c2cc(C)nc3c2c(C)nn3-c2cccc(Cl)c2C)cc1 | inactive: 88%
40 | COc1cccc(NC(=O)C(CCSC)NC(=O)C2CCC(C)CC2)c1 (stereo not given) | inactive: 73%
41 | CC(C)CN(CCCNC(=O)c1cn(C)c2ccc(S(=O)(=O)N(C)C3CCCCC3)cc2c1=O)CC(C)C | inactive: 104%
42 | Nc1nc2c(c(=O)[nH]1)CCC2 | inactive: 71%
43 | CCn1cc(C(=O)N2CCN(c3ccc(OC)cc3)CC2)c(=O)c2cc(S(=O)(=O)N(C)C3CCCCC3)ccc21 | inactive: 122%
44 | COc1cccc(CNC(=O)c2nn(C)c3c2CS(=O)(=O)c2ccccc2-3)c1 | inactive: 74%
45 | c1cc(CNc2ccc3c(c2)OCCO3)ccn1 | inactive: 100%
46 | COc1ccc(NC(=O)CSC2=Nc3ccccc3C3=NC(CCC(=O)NCCc4ccccc4)C(=O)N23)c(OC)c1 (stereo not given) | inactive: 89%

Row | SMILES | survival
47 | O=C(NCc1ccco1)c1ccc2c(c1)N(Cc1ccccc1F)C(=O)c1ccccc1S2=O (stereo not given) | inactive: 90%
48 | CCOC(=O)c1c(NC(=O)Cn2nnc3ccccc32)sc2c1CCC(C)C2 (stereo not given) | inactive: 64%
49 | Cc1nn(CC(=O)Nc2cccc(C(F)(F)F)c2)c(=O)c2nn(-c3ccccc3)c(C)c12 | inactive: 75%
50 | CC(C)CSc1oc(-c2ccco2)nc1S(=O)(=O)c1ccc(Br)cc1 | active: 33%
51 | CCOc1ccc(-n2c(=O)c3c(C)c(C)sc3n(Cc3cc(=O)n4cc(Cl)ccc4n3)c2=O)cc1 | inactive: 69%
52 | CN(C(=O)CSc1nc2ccccc2n1Cc1cccc(C(F)(F)F)c1)c1ccccc1 | inactive: 66%
53 | O=C(COC(=O)c1cc(-c2ccccc2)nc2c(Cl)cccc12)c1ccc(F)cc1 | inactive: 74%
54 | O=C(NCCc1csc(-c2ccc(F)cc2)n1)c1c(F)cccc1Cl | inactive: 122%
55 | COc1ccc(C)cc1NC(=O)CC(=O)Nc1ccc2nc3n(c(=O)c2c1)CCCCC3 | inactive: 89%
56 | CC1(C)NC(=O)N(CC(O)CN(Cc2ccccc2)Cc2ccccc2)C1=O (stereo not given) | inactive: 89%
57 | CCOc1ccc(S(=O)(=O)N(C(=O)c2ccncc2)c2ccc3oc(C)c(C(=O)OC)c3c2)cc1 | inactive: 168%
58 | CCOc1ccc(C2=CC(c3cc(Br)ccc3F)n3ncnc3N2)cc1Cl (stereo not given) | inactive: 76%
59 | COc1ccc(-c2noc(CSc3nnc(C)n3-c3ccc(F)cc3)n2)cc1 | inactive: 53%
60 | COc1ccc(NC(=O)C(c2ccccc2)N(C)C(=O)/C=C\c2ccc3c(c2)OCO3)cc1 (stereo not given) | inactive: 65%
61 | Cc1cn2c(=O)c(S(=O)(=O)Nc3ccc(OC(F)(F)F)cc3)c(C)nc2s1 | inactive: 109%
62 | CCOc1ccc(C(=O)Nc2ccc3nc(Nc4cccc(C(F)(F)F)c4)cc(C)c3c2)cc1OCC | inactive: 83%
63 | COc1ccc(C(CC(=O)Nc2cc(Cl)c(OC)cc2OC)N2Cc3ccccc3C2=O)cc1 (stereo not given) | active: 0%
64 | COc1ccc(-c2c(C)nn3c(C(F)(F)F)cc(-c4ccc(C)cc4)nc23)cc1 | inactive: 82%
65 | O=C(COc1ccc(S(=O)(=O)NCc2ccccc2)cc1Cl)N1CCOCC1 | inactive: 78%
66 | COc1ccc(CNC(=O)Cn2c(=O)n3nc(-c4ccc(OC)cc4)nc3c3ccccc32)cc1 | inactive: 67%
67 | CC(=O)c1cccc(NS(=O)(=O)c2ccc3[nH]c4c(c3c2)CCCCC4)c1 | inactive: 87%
68 | C=CCNC(=S)/N=c1\sccn1C | inactive: 96%
69 | Cc1ccccc1NS(=O)(=O)c1ccc2[nH]cc(C(=O)NCCc3ccccc3)c(=O)c2c1 | inactive: 95%

Row | SMILES | survival
70 | Cc1ccc2cc(C#N)c(SCC(=O)Nc3ccccc3N3CCOCC3)nc2c1C | inactive: 83%
71 | Cc1ccccc1OCC(=O)Nc1c(C(=O)Nc2ccccc2F)oc2ccccc12 | inactive: 130%
72 | CCOc1ccc(NC(=O)N2CC3CCCN3c3ccccc32)cc1 (stereo not given) | inactive: 91%
73 | CC(=O)NNc1ncnc2c1cnn2-c1ccccc1 | active: 46%
74 | Cc1ccc(F)cc1NC(=O)CSc1nc(-c2cccs2)cc(C(F)(F)F)n1 | inactive: 68%
75 | CCOc1ccc(NC(=O)C(CC)n2nc(C)c3c(C)n(-c4ccccc4)nc3c2=O)cc1 (stereo not given) | inactive: 92%
76 | Cc1ccc(NC(=O)CN2C(=O)CC(c3ccco3)Sc3ccccc32)cc1Cl (stereo not given) | inactive: 86%
77 | O=C1OC2(CCCC2)OC(=O)C1=CNc1ccccc1 | inactive: 96%
78 | COc1ccc(-c2csc(NC(=O)C(C)C)n2)cc1 | inactive: 84%
79 | COc1ccc(NC(=O)c2oc3ccccc3c2NC(=O)c2cc3ccccc3o2)c(OC)c1 | inactive: 72%
80 | CCCCc1ccc(NC(=O)CSc2nc3ccccc3nc2N2CCCCC2)cc1 | active: 30%
81 | CCOC(=O)c1ccc(NC(=O)CS(=O)(=O)Cc2nc(-c3ccc(C)cc3)oc2C)cc1 | inactive: 95%
82 | CCCNC(=O)CCc1c(C)nc2nc(CNC(=O)c3ccccc3)nn2c1C | inactive: 89%
83 | COC(=O)c1c(-c2ccc(Cl)cc2)noc1N1CCN(c2ccc(C(C)=O)cc2)CC1 | inactive: 81%
84 | COc1ccc(-c2csc(C)n2)cc1 | inactive: 75%
85 | Cc1ccc(C(=O)O)cc1NC(=O)c1nsc2ccccc12 | inactive: 103%
86 | COc1ccc(CCNC(=O)CN2C(=O)COc3ccc(S(=O)(=O)N4CCCC4)cc32)cc1OC | inactive: 90%
87 | Cc1cc(Cl)ccc1NC(=O)CSc1nc2c(c(=O)[nH]1)CCC2 | inactive: 80%
88 | C/C=N/NC(=O)CSc1nc2ccccc2s1 | inactive: 96%
89 | COC(=O)c1sc(N2C(=O)c3oc4ccc(C)cc4c(=O)c3C2c2ccc(OC)cc2)nc1C (stereo not given) | inactive: 179%
90 | CCCOc1ccc(Oc2nc(NC)nc(N3CCOCC3)n2)nn1 | inactive: 99%
